In a compilation of properties of binary mixtures (doi:10.1016/j.molliq.2021.116463):
The densities may have been worked out from excess volumes.

Assay: xn = mol fraction of the nth substance listed
Conditions: 100 kPa

[Cl-].c1c[nH+]c[nH]1 + OCC(O)CO
mass density [kg/m3]
Conditions | 293.2 K | 303.2 K | 313.2 K | 323.2 K | 333.2 K | 343.2 K | 353.2 K
x1 = 0.1667 | 1266.6 | 1260.7 | – | 1248.7 | 1242.6 | 1236.4 | 1230.3
x1 = 0.25 | 1267.9 | 1262.1 | 1256.2 | – | 1244.3 | 1238.4 | 1232.5
x1 = 0.3333 | 1270.8 | 1265.1 | – | – | 1247.4 | 1241.5 | 1235.6
x1 = 0.5 | 1277.3 | 1269.3 | 1261.3 | 1255.3 | – | – | 1237.8
